Assay results as given in the supplement of paper PMC3334620.
Whole data set: some 33,000 sequences, median “E-score (-0.5 to 0.5)” near -0.035, cut for the highest 2% near 0.34. Some of the results follow.

Molecular target: T1, Mot3 (UniProt P54785)
T1 sequence: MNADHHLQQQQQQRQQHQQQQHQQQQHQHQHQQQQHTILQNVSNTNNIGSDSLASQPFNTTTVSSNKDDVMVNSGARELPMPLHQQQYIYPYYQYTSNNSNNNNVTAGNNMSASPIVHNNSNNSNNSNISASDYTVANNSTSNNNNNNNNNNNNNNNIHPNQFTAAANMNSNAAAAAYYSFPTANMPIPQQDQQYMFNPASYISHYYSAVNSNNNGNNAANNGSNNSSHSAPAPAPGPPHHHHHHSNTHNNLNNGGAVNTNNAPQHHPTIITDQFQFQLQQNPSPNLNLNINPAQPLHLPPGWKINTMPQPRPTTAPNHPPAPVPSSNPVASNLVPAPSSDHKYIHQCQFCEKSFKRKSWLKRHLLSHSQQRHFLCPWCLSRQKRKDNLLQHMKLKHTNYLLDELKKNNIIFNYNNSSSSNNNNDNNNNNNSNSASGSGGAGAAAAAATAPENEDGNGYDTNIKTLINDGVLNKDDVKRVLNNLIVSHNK
Assay: PBM E-score (8-mer binding enrichment) (E-score (-0.5 to 0.5)); higher = stronger / more preferred TF binding; most listed sequences are background and not binding sites
Conditions: protein concentration: 200 nM; construct: GST-full length
In short: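 Yeast transcription factors carrying a GST tag, as full-length proteins or DNA-binding domains, were produced by PURExpress in vitro transcription/translation. About 100-200 nM protein was applied to universal all-10-mer Agilent arrays, double-stranded by primer extension on fresh or once-stripped slides. Bound protein was detected with fluorescent anti-GST, and scans were normalised with masliner. The Universal PBM Analysis Suite gave each ungapped eight-base word, pooled with its reverse complement, an E-score, a modified Wilcoxon-Mann-Whitney statistic.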

Going from ATCCAATC to ACAGGAGT, the “PBM E-score” value rises from -0.238 to 0.126.

Going from AGCACGGC to TACGCTGA, the “PBM E-score” value rises from 0.161 to 0.189.

First: ATTGACGA
Second: ATGCAAAC
The “PBM E-score” value of the first is higher: 0.0928 for the first, -0.0572 for the second.

First: TTATGGAA
Second: GTCAGAGA
The “PBM E-score” value of the first is higher: 0.0164 for the first, -0.242 for the second.

Going from CCCATAAA to CAGCCTGA, the “PBM E-score” value falls from -0.103 to -0.209.

Going from ACTTTTAC to ATCCGGAG, the “PBM E-score” value falls from 0.235 to -0.0342.

Going from CGCCTGTA to AATAAATG, the “PBM E-score” value falls from 0.213 to 0.0869.

First: AAACAATG
Second: GTGGATGA
The “PBM E-score” value of the first is higher: 0.191 for the first, -0.0229 for the second.

First: CCCACCGG
Second: ACATGCAT
The “PBM E-score” value of the first is lower: -0.388 for the first, 0.295 for the second.

Compared with AGAAGTCG, CATGTCTA is higher in “PBM E-score” value: -0.102 for the first, 0.223 for the second.

Going from GTGGGCTA to AATGGTGA, the “PBM E-score” value rises from -0.25 to 0.0586.

First: GCCATAGA
Second: AGAAATAA
The “PBM E-score” value of the first is lower: -0.279 for the first, 0.0617 for the second.

Compared with AGACTTAA, CGGGCTGA is lower in “PBM E-score” value: 0.053 for the first, -0.22 for the second.

Compared with CGGCGAAA, AATCTTAA is higher in “PBM E-score” value: -0.109 for the first, 0.119 for the second.

First: ACCCCCGC
Second: AGCAGGAT
The “PBM E-score” value of the first is lower: -0.214 for the first, -0.0589 for the second.

Going from ATAATAAT to ACATTCGA, the “PBM E-score” value falls from 0.121 to 0.0576.

Going from CGCTCAAC to GGGATATA, the “PBM E-score” value falls from -0.0198 to -0.187.

First: AGCCGGGC
Second: GTTGGGAA
The “PBM E-score” value of the first is lower: -0.248 for the first, -0.105 for the second.

Going from GAACAGAC to TCCATCAA, the “PBM E-score” value falls from 0.134 to 0.107.

Going from GGAGGTGA to AAACCTTG, the “PBM E-score” value rises from -0.0735 to 0.114.

Compared with ATAACTAA, CACGTCAG is lower in “PBM E-score” value: 0.152 for the first, 0.0313 for the second.

Compared with ATGTTTAC, CGTAGGAG is lower in “PBM E-score” value: 0.374 for the first, -0.0892 for the second.

Going from ACTGGTCC to GCGCAGAA, the “PBM E-score” value rises from -0.277 to -0.114.

First: AAGTATCT
Second: GGCTGCAC
The “PBM E-score” value of the first is higher: -0.00241 for the first, -0.101 for the second.

First: GGCATTAA
Second: AGTCAACC
The “PBM E-score” value of the first is higher: 0.103 for the first, -0.188 for the second.

First: GATGCTTA
Second: ATTCGATC
The “PBM E-score” value of the first is lower: -0.195 for the first, 0.074 for the second.

First: GTGGGTAA
Second: ACTGAAGT
The “PBM E-score” value of the first is higher: -0.0112 for the first, -0.0409 for the second.

Compared with GACAGGCA, GGTATAGA is lower in “PBM E-score” value: 0.483 for the first, 0.0233 for the second.

First: AAAGTATT
Second: CGGTGTAA
The “PBM E-score” value of the first is lower: -0.0686 for the first, 0.237 for the second.

Going from CACGCGCC to GAGCAGGC, the “PBM E-score” value rises from 0.181 to 0.23.

Compared with ATCATAAG, TAGGCCAA is lower in “PBM E-score” value: 0.00281 for the first, -0.0777 for the second.

Compared with AGCCCCGA, AGATCCGC is lower in “PBM E-score” value: -0.21 for the first, -0.248 for the second.

First: CAGCACAG
Second: GTGTTAGA
The “PBM E-score” value of the first is lower: 0.126 for the first, 0.14 for the second.

Compared with GCGACTGA, AGGAGTCG is higher in “PBM E-score” value: -0.137 for the first, -0.0368 for the second.

Compared with CAACGATA, ATGCCAAC is lower in “PBM E-score” value: 0.128 for the first, 0.0877 for the second.

First: AAATCTAG
Second: CACAGCGG
The “PBM E-score” value of the first is higher: 0.0254 for the first, -0.13 for the second.

First: AATAGGGA
Second: GAACAATA
The “PBM E-score” value of the first is lower: -0.0751 for the first, 0.212 for the second.

First: ATTAGTGC
Second: TCAGGCGA
The “PBM E-score” value of the first is higher: -0.0216 for the first, -0.0408 for the second.

Compared with GCTGGCAA, CGAACCTA is higher in “PBM E-score” value: -0.143 for the first, -0.0603 for the second.

First: ACTTGTTA
Second: ACCCGCAA
The “PBM E-score” value of the first is higher: 0.272 for the first, -0.0644 for the second.

Compared with CCATGCCC, ATCTTCTC is higher in “PBM E-score” value: -0.345 for the first, 0.0285 for the second.

Going from CTGCGCAG to CCTGGATC, the “PBM E-score” value falls from -0.116 to -0.157.

Compared with CTCACGCA, CTGGGCCA is lower in “PBM E-score” value: 0.103 for the first, -0.275 for the second.

Compared with ATTATAAC, GTGAGATA is lower in “PBM E-score” value: 0.197 for the first, -0.0887 for the second.

Going from CCTGCCCG to AGAATGTG, the “PBM E-score” value falls from 0.0838 to -0.196.

Going from CGTACAAA to ATCCGAGC, the “PBM E-score” value falls from 0.139 to -0.242.

First: CCACGAAG
Second: CCGTGCCG
The “PBM E-score” value of the first is higher: -0.0785 for the first, -0.121 for the second.

Compared with CTTTACCA, AGACTAAA is lower in “PBM E-score” value: 0.0468 for the first, -0.163 for the second.

Going from CACGCCAG to AAATTTGT, the “PBM E-score” value rises from 0.0478 to 0.108.

First: AGGAAGAT
Second: GAGAAGAC
The “PBM E-score” value of the first is lower: -0.271 for the first, -0.042 for the second.

First: CCGTCGCG
Second: CAGAAGAG
The “PBM E-score” value of the first is higher: -0.128 for the first, -0.269 for the second.

Compared with ATTCCGTG, ACTATCTA is higher in “PBM E-score” value: 0.0245 for the first, 0.219 for the second.

First: CAGCCTCG
Second: GAGCAAGA
The “PBM E-score” value of the first is higher: -0.019 for the first, -0.0604 for the second.

Going from CCGAGAGG to GTTCGGGA, the “PBM E-score” value rises from -0.23 to 0.059.

First: GGTGTTTA
Second: CACAACGG
The “PBM E-score” value of the first is higher: 0.0636 for the first, 0.0565 for the second.

Compared with CATGGCCG, TGCACACA is lower in “PBM E-score” value: 0.158 for the first, 0.0915 for the second.

Compared with CTTCGATC, CCTTGAGC is higher in “PBM E-score” value: -0.202 for the first, -0.0057 for the second.

Going from GATCCGTA to ATGGAAGG, the “PBM E-score” value rises from -0.383 to 0.0524.

Compared with AGATTTAC, ACTGTCAT is lower in “PBM E-score” value: 0.258 for the first, -0.0164 for the second.

First: AAGCCGTC
Second: GAACCTGC
The “PBM E-score” value of the first is lower: -0.285 for the first, 0.178 for the second.

Going from ATGGTACC to AAGAACAA, the “PBM E-score” value rises from 0.0759 to 0.287.

Compared with AAACAGGC, GGAGAGAA is lower in “PBM E-score” value: 0.301 for the first, -0.148 for the second.

First: GTTCAAAC
Second: ATGAAGAG
The “PBM E-score” value of the first is higher: 0.0214 for the first, -0.174 for the second.

First: AACAGTCA
Second: ACAGTCAT
The “PBM E-score” value of the first is higher: 0.0177 for the first, -0.0548 for the second.

Going from ACCGCTCC to CGGTAACC, the “PBM E-score” value rises from -0.258 to 0.0547.

Going from AGTGGCAC to AAGTGAGG, the “PBM E-score” value rises from -0.263 to -0.165.

Compared with CTTCGAAA, ATGACTCA is lower in “PBM E-score” value: 0.0268 for the first, -0.0353 for the second.

Compared with ATCTACGC, CAAGAATA is lower in “PBM E-score” value: 0.291 for the first, 0.0212 for the second.

Compared with CATACTGC, CCCTACCG is lower in “PBM E-score” value: -0.147 for the first, -0.203 for the second.

First: CAGGCGGG
Second: TAAAAGAA
The “PBM E-score” value of the first is lower: -0.296 for the first, 0.138 for the second.

Compared with TGGTAGAA, TCGAAGCA is lower in “PBM E-score” value: -0.0378 for the first, -0.0828 for the second.

First: CGCCATAA
Second: GAGAACAC
The “PBM E-score” value of the first is lower: -0.168 for the first, 0.155 for the second.

First: GAACCACA
Second: CGGACGTC
The “PBM E-score” value of the first is higher: -0.0669 for the first, -0.0742 for the second.

First: GACGTGAC
Second: ACCCAGAT
The “PBM E-score” value of the first is higher: 0.0524 for the first, -0.269 for the second.

Going from ATAAGTCC to AGATTTCA, the “PBM E-score” value rises from -0.152 to 0.132.

Going from TATTAAGA to GTATTTGA, the “PBM E-score” value rises from -0.0245 to 0.0613.

Compared with ATCTATTC, GGAGCGAA is lower in “PBM E-score” value: -0.0184 for the first, -0.211 for the second.

Going from ATGGCATC to GGGTCACA, the “PBM E-score” value falls from -0.162 to -0.318.

Going from GGGCAGTA to CGGTACGC, the “PBM E-score” value rises from -0.213 to -0.174.

Compared with CGTCGCAC, ACGGGATG is higher in “PBM E-score” value: -0.243 for the first, -0.0366 for the second.

First: CCTGTTCC
Second: GAAAGCGA
The “PBM E-score” value of the first is higher: 0.134 for the first, 0.0096 for the second.

First: AACTGCTA
Second: CCCAAAGA
The “PBM E-score” value of the first is lower: -0.0589 for the first, -0.0348 for the second.

First: CAGGTGTC
Second: ACATCCAT
The “PBM E-score” value of the first is higher: 0.176 for the first, 0.163 for the second.

Compared with GATCTAGA, AACTAAGA is higher in “PBM E-score” value: -0.25 for the first, 0.0799 for the second.

First: AGCCTCTG
Second: ATCTTGTA
The “PBM E-score” value of the first is lower: -0.338 for the first, 0.286 for the second.

Going from TACGGACA to AGAATGTC, the “PBM E-score” value rises from -0.00084 to 0.0807.
